Results reported in paper PMC4336329 (PLoS ONE, 2015).
Hit rate of the full screen: of about 310,000 compounds, about 14,000 (4.5%) showed an effect of 50% or more. The effect is printed as a negative number. This is one part of the list.

Target: human ether-à-go-go-related gene (hERG) potassium channel (human, UniProt Q12809)
Assay: primary screen, population patch clamp on CHO cells stably expressing hERG
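Note: peak tail current of the secondary pulse compared with the same well before compound.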

Sequence of human ether-à-go-go-related gene (hERG) potassium channel (Q12809 whole entry, looked up): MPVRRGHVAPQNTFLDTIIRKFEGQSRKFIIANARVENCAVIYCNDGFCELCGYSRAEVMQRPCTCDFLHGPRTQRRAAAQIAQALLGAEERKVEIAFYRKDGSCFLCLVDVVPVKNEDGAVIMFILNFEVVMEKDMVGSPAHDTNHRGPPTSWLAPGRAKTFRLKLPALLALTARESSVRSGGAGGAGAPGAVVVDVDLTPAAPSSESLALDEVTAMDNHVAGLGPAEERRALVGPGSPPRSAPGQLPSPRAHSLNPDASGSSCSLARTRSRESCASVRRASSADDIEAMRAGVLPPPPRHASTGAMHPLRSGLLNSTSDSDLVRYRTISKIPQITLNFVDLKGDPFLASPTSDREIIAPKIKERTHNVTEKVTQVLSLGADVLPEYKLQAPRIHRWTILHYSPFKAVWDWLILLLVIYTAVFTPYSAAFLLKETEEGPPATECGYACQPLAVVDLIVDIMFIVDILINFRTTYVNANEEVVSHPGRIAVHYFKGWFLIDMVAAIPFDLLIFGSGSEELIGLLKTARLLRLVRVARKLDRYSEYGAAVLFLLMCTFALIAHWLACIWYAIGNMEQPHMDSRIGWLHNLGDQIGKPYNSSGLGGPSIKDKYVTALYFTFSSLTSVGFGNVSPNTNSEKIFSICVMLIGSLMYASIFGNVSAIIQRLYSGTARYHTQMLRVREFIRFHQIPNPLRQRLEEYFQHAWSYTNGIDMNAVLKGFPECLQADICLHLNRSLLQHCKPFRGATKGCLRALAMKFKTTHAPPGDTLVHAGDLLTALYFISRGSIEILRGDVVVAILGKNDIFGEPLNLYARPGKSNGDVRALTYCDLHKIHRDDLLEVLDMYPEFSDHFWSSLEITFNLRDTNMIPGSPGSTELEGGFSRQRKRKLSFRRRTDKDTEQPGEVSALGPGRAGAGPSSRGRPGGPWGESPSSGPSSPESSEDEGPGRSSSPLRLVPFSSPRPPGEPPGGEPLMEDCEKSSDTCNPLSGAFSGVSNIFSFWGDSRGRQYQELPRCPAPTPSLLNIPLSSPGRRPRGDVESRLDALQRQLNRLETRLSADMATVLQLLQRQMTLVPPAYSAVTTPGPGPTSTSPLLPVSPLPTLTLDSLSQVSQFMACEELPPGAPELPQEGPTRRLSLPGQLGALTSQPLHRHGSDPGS

Row | SMILES | hERG current change (%, negative = inhibition) at 10uM [%]
1 | COc1ccc(-c2noc(-c3ccccc3C(=O)Nc3cccnc3)n2)cc1 | -12.5
2 | CCN(CC)C(=O)c1ccc(NC(=O)c2cccc(S(=O)(=O)N3CCN(C)CC3)c2)cc1 | 6.98
3 | CCn1c(=O)c(=O)[nH]c2cc(C(=O)NCc3ccc(F)cc3)ccc21 | -13
4 | CCN(CC)c1ccc(/C=N/Nc2cccc(C)c2)c(O)c1 | 7.93
5 | C#CCN1C(=O)C2(C(C#N)=C(N)OC(C)=C2C(=O)OCc2ccccc2)c2ccccc21 (stereo not shown) | -10.7
6 | C/C(CC(=O)Nc1ccc([N+](=O)[O-])cc1)=N/NC(=O)C1CC12CCC2 (stereo not shown) | -37.7
7 | CC(C)N1C(=O)CCC1C(=O)N1CCC(Cc2ccccc2)CC1 (stereo not shown) | -25.3
8 | COc1ccc([C@@H]2OC2(C(N)=O)C(N)=O)cc1 | 6.32
9 | O=C(NCCN1CCOCC1)C(=O)NCC1OCCCN1S(=O)(=O)c1ccc(F)cc1 (stereo not shown) | 11
10 | CCOC(=O)c1sc(NC(=O)c2cc3ccccc3o2)nc1C | -3.89
11 | CC(CC(=O)N1CCN(c2ccccc2)CC1)S(=O)(=O)c1ccc2c(c1)NC(=O)CO2 (stereo not shown) | -20.1
12 | O=C(Nc1ccc(Br)c(C(F)(F)F)c1)c1ccc(C(F)(F)F)cc1 | 11.8
13 | CC(C)CN(C(=O)COC(=O)C1CC1)c1c(N)n(Cc2ccccc2)c(=O)[nH]c1=O | 13
14 | Cc1nnc(NC(=O)CSc2nnc(-c3ccccc3)n2C)s1 | 14.9
15 | CC(C)C(c1nnnn1Cc1cccs1)N1CCN(c2ccccc2)CC1 (stereo not shown) | 20
16 | CCOC(=O)C1CCN(C(=O)C2CCN(S(=O)(=O)c3ccc4c(c3)CC(C)N4C(C)=O)CC2)CC1 (stereo not shown) | 16.6
17 | CCOC(=O)N1CCN(C(=O)/C(=C/c2cccs2)NC(=O)c2cccs2)CC1 | -45.7
18 | Nc1nc(NC(=O)c2ccccc2)nn1-c1ccccc1 | -70.9
19 | CN(c1ccc(C(=O)NCc2ccncc2)cc1)S(C)(=O)=O | 0.455
20 | CCOC(=O)c1c(-c2ccccc2Cl)cn2ccccc12 | -13.9
21 | O=C(CCCO)N/N=C/c1ccccc1[N+](=O)[O-] | 20.7
22 | Cc1cc(N2CCN(C)CC2)nc2ccc(NC(=S)N3CCCCCC3)cc12 | -67.2

Row | SMILES | hERG current change (%, negative = inhibition) at 10uM [%]
23 | Cc1c(C#N)sc(C(N)=O)c1C | 0.542
24 | O=C(NCc1nnnn1-c1ccc(F)cc1)C1CC(=O)N(c2ccc(F)cc2)C1 (stereo not shown) | -34.7
25 | Cc1ccc(NC(=S)NCc2ccccc2)c(C)c1 | 2.15
26 | Cc1ccc(/C=c2\sc3nc(-c4cccnc4)nn3c2=O)cc1 | -7.97
27 | COc1ccc(-c2c(=O)n(OCc3ccccn3)c3ccccc3[n+]2[O-])cc1OC | 29.8
28 | O=C1[C@@H]2[C@H](C(=O)N1Cc1cccnc1)[C@H]1C=C[C@@H]2C1 | -3.89
29 | CC(Oc1ccc(Cl)cc1)C(=O)/C=C/N(C)C (stereo not shown) | -11
30 | O=C(COc1ccccc1F)NCc1ccc(-n2cccc2)cc1 | 4.13
31 | CCc1ccc(NS(=O)(=O)c2ccc(OC)c(C)c2)cc1 | -7.22
32 | CN(CC(=O)Nc1ccc(N2CCOCC2)cc1)C(=O)c1cc2c(s1)CCCC2 | -17.9
33 | NS(=O)(=O)c1ccc(CCNC(=O)/C=C/c2ccccc2[N+](=O)[O-])cc1 | 6.37
34 | CCCCCn1c(=O)c(C(=O)Nc2cnccn2)c(O)c2ccccc21 | 25.1
35 | Cn1c(=O)c2cn(-c3ccccc3)cc2n(C)c1=O | 0.538
36 | Fc1cccc2ncnc(OCc3ccccc3)c12 | 1.71
37 | Cc1ccc(S(=O)(=O)N(CC(=O)N2CCCC2)C2CCCCC2)cc1 | -37.7
38 | Cc1ccc2[nH]c(=O)c(CN(C(=O)c3cccc([N+](=O)[O-])c3)C(C)C)cc2c1 | -50.5
39 | O=C(NCCNC(=O)C(c1ccccc1)c1ccccc1)c1ccco1 | 13.4
40 | O=C(Cn1c(=O)n(CC2CS2)c2ccccc21)N1CCCCC1 (stereo not shown) | 7.21
41 | Nc1nc(C2CC(=O)OC23CCCCC3)cs1 (stereo not shown) | 10.5
42 | CCN1CCN(CCCN(Cc2cccs2)C(=S)Nc2ccccc2C)CC1 | -54.4
43 | O=[N+]([O-])c1c(Nc2ccc(O)cc2)cc(N2CCOCC2)c2nonc12 | 1.3
44 | CC(=O)Nc1ccc(NC(=S)NC(=O)/C=C/c2ccco2)cc1 | 6.71

Row | SMILES | hERG current change (%, negative = inhibition) at 10uM [%]
45 | Cc1cc2nc(-c3ccc(SCC(=O)N4CCc5ccccc54)nc3)[nH]c2cc1C | 3.35
46 | O=c1cc(-c2ccc(O)cc2)oc2cc(O)cc(O)c12 | -2.23
47 | CCCn1c(SC(C)C(=O)N2CCOCC2)nc2ccc(Br)cc2c1=O (stereo not shown) | -56.1
48 | O=C1[C@@H]2Cc3c([nH]c4ccccc34)C(c3ccccc3)N2C(=O)CN1C1CC1 (stereo partly shown) | 8.53
49 | CCC(c1nnc(SCC(=O)Nc2cc(C)on2)o1)N(C)C (stereo not shown) | 13.2
50 | CC1CCCN(S(=O)(=O)c2cccc(-c3cn4cccnc4n3)c2)C1 (stereo not shown) | -9.8
51 | Cc1nnc2c(N3CCN(C(=O)c4ccco4)CC3)nc3ccccc3n12 | -33.1
52 | Cc1cc(C)cc(CSCC(=O)N/N=C/c2ccc(OCC(=O)NCc3ccco3)cc2)c1 | -11.3
53 | Nc1ccc(S(=O)(=O)Nc2ccnn2-c2ccccc2)cc1 | 1.77
54 | COc1cccc(CNC(=O)C2CCN(Cc3cnn(-c4ccccc4)c3-n3cccc3)CC2)c1 | -71.3
55 | CN(Cc1ccccc1F)c1ncnc2sccc12 | -3.84
56 | CCn1c(C)nc2cc(C(=O)NNS(=O)(=O)c3ccc(C)cc3C)ccc21 | -12.9
57 | COc1cccc(NC(=O)Nc2ccc(CC(=O)O)cc2)c1 | 12.7
58 | COc1ccc(C)cc1-n1nnnc1SCc1nc2ccccc2c(=O)[nH]1 | -2.66
59 | CC(C)c1ccc(-n2c(O)c(C=NC(CCS(C)=O)C(=O)O)c(=O)[nH]c2=S)cc1 (stereo not shown) | 20.4
60 | CN(CCc1ccccn1)C(=O)CCC1CCCN(C(=O)c2c(F)ccc(F)c2F)C1 (stereo not shown) | -11.7
61 | CN(C)C(=O)Nc1ccccc1CC[N+](=O)[O-] | -1.02
62 | COC(=O)C1=C(c2c(C)noc2C)C[C@@H]2CC[C@H]1N2C(=O)N1CCc2cc(OC)c(OC)cc2C1 | -0.799
63 | O=C(COC(=O)Cn1nc(-c2ccccc2)oc1=O)Nc1ccc(F)cc1 | 4.6
64 | O=C(NNS(=O)(=O)c1ccccc1)C1CCCCC1 | 6.38
65 | COC(=O)CCC(=O)NNC(=O)C1CC1(c1ccccc1)c1ccccc1 (stereo not shown) | 6.43
66 | Nc1nc2n(n1)C(c1cccs1)CC(c1ccc(Br)cc1)N2 (stereo not shown) | -57.5

Row | SMILES | hERG current change (%, negative = inhibition) at 10uM [%]
67 | Cc1nn(Cc2cccc(C(=O)Nc3ccn(Cc4c(F)c(F)cc(F)c4F)n3)c2)c(C)c1[N+](=O)[O-] | -8.4
68 | O=C(CCN1C(=O)c2ccccc2C1=O)CN1CCOCC1 | 19.8
69 | O=C1CNC(=S)N1c1nc(-c2ccccc2)cs1 | 35.7
70 | NC(=O)c1ccccc1-c1nc(-c2ccccc2)no1 | -76.5
71 | Clc1nc(CN2CCOCC2)nc2sc3c(c12)CCC3 | 14.5
72 | O=C(CCn1c(=O)sc2ccccc21)Nc1nccs1 | -2.69
73 | C/C(CC(=O)c1ccccc1)=N\NC(=O)CC#N | 12.1
74 | CC(=O)Nc1nc(C)c(CCC2OCCO2)c(=O)[nH]1 | 17.4
75 | O=C(Cn1ccc2ccccc2c1=O)NCCC(=O)N1CCN(c2ccccc2)CC1 | 4.3
76 | COc1ccc(CCNC(=O)C/C(C)=N/NC(=O)C23CC4CC(CC(C4)C2)C3)cc1OC | 11.7
77 | N#C/C(=C\c1c[nH]c2ccccc12)C(=O)Nc1ncc(Cc2ccc(Cl)cc2Cl)s1 | 14.5
78 | Cc1ccc(N2CCN(C(=O)c3cccs3)CC2)c(C)c1 | -10.6
79 | CCOC(=O)CSC1=C(C#N)C(c2ccc(C)cc2)C(C(=O)OC)C(=O)N1 (stereo not shown) | -4.56
80 | CCOc1ccc(NS(=O)(=O)c2ccc(C(=O)NCC(c3cccs3)N3CCOCC3)cc2)cc1 (stereo not shown) | -24.4
81 | CC(C)COP(=O)(c1ccc(N(C)C)cc1)C(Nc1ccccc1)c1cccnc1 (stereo not shown) | -30.3
82 | O=C(NC1CCCCC1)Oc1cc2oc(=O)sc2cc1Br | 13.9
83 | Cc1ccc(F)cc1NC(=O)c1c(-c2ccccc2)noc1C | -3.67
84 | O=C(Nc1ccc(S(=O)(=O)N2CCCCCC2)cc1)c1c(F)cccc1F | 12.3
85 | N#Cc1ccccc1N=Cc1ccc(Br)cc1 | 1.64
86 | CN1CCCc2cc(C#N)c(=O)[nH]c21 | -16.2
87 | Cc1ccc(Cl)cc1NC(=O)NCc1ccccn1 | 5.36
88 | Cc1cccc(NC(=O)CSc2nnc(-c3n[nH]c4ccccc34)o2)c1 | 16
